Where “and” joins values, the source holds several entries; their conditions need not be identical. Identical values can stand only once. The whole screen tested about 390,000 compounds, of which about 4,000 (1%) were called active. This list was built around the results that the source calls inconclusive (neither active nor inactive); the mix of calls is not that of the screen. The call rests on the fitted dose curve; in most records, active means well fitted inhibition curve with a large enough effect; inconclusive means small, poorly fitted or top-dose-only effect; inactive means no such curve, though single readings can be large or run the other way. Potencies beside an inconclusive call are fits to weak or partial responses and may not hold up.
target: Thioredoxin reductase 1, cytoplasmic (Rattus norvegicus) (UniProt O89049); test: qHTS Assay for Inhibitors of Mammalian Selenoprotein Thioredoxin Reductase 1 (TrxR1): qHTS; conditions: recombinant rTrxR1, NADPH fluorescence consumption, selenite substrate; series mostly up to 114 µM; activity change, negative = inhibition: at the top concentration; further: nearly all actives have a fitted effect of over 65% in size
Sequence of UniProt O89049 (O89049 whole entry, looked up): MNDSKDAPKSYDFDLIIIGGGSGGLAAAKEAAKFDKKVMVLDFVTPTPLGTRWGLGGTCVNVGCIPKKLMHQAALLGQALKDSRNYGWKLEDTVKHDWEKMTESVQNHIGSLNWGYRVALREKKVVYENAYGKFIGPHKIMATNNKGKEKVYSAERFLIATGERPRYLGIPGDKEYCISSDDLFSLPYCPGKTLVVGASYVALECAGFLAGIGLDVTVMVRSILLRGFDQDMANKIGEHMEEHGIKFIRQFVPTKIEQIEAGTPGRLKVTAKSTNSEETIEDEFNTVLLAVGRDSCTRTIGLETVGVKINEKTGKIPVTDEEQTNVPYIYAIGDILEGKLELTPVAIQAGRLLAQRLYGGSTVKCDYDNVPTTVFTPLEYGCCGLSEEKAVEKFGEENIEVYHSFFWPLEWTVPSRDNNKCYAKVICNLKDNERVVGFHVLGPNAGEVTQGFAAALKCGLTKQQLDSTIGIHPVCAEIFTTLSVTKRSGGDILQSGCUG
Method in brief: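 Rat TrxR1 (90 nM in the dispensed reagent) was pre-reduced with 400 uM NADPH for 5 min at room temperature, then incubated with compound for 15 min. After 400 uM selenite was added, NADPH fluorescence (Ex 340/Em 450 nm) was followed for 8 min.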
On the % scale 0 is the no-effect control and ±100 the full control effect; potency means the concentration at half of the fitted maximal effect; tags describe the fitted curve by direction and shape.

Compound	activity change, negative = inhibition	Potency
COC(=O)c1ccccc1NC(=O)c1cc(CN2CCOCC2)on1	inactive: 15.8% [at 57.1 µM]	–
CC(C)OC(=O)c1ccc(NCc2cc(O)ccc2O)cc1Cl	–	inconclusive: 70.8 µM [inhibitor, partial curve]
O=C(C1=C(O)C(=O)N(Cc2ccco2)C1c1cccc([N+](=O)[O-])c1)c1ccco1 (centres undefined)	–	inconclusive: 56.2 µM [inhibitor, single point]
COc1ccccc1-c1cc(C(F)(F)F)nc(S(=O)(=O)CCCC(=O)Nc2cc(C)on2)n1	–	inconclusive: 20 µM [inhibitor, single point]
Cc1ccc(Cl)c2c1=NC(=O)C=2c1[nH]c(=S)[nH]c1O	–	inconclusive: 50.1 µM [inhibitor, partial curve, poor fit]
Cc1nn2c(=O)cc(COc3ccc(/C=C(\C#N)C(=O)Nc4ccccc4)cc3Cl)nc2s1	inactive: 16.6%	–
Cc1ccccc1N(CC(=O)NCCSCc1ccco1)S(C)(=O)=O	–	inconclusive: 12.6 µM [inhibitor, full curve]
CCn1cc(C(=O)OCC(=O)Nc2c(C)cccc2C)c(=O)c2ccc(C)nc21	–	inconclusive: 0.141 µM [inhibitor, full curve, poor fit]
CCOc1ccccc1NC(=O)CSC1=Nc2ccccc2C2=NC(CC(=O)NCc3ccc4c(c3)OCO4)C(=O)N12 (centres undefined)	inactive: 2%	–
O=C(NC(=S)Nc1cccc(NC(=S)NC(=O)c2ccco2)n1)c1ccco1	inactive: 22.5% [at 57.1 µM]	–
COc1ccc(C(=O)N2CCOC2CNC(=O)C(=O)NCc2ccccc2Cl)cc1 (centres undefined)	–	inconclusive: 1.41 µM [inhibitor, full curve, poor fit]
CC1(C)CC(=O)C(C(c2ccco2)C2C(=O)CC(C)(C)CC2=O)C(=O)C1	–	inconclusive: 39.8 µM [inhibitor, partial curve]
CCN(C(=O)Cc1ccccc1OC)c1nnc(-c2ccncc2)s1	inactive: 8.77%	–
O=C1CC(N2CCC(c3nc4ccccc4o3)CC2)C(=O)N1c1ccc(F)cc1 (centres undefined)	inactive: 28.6%	–
C[C@@H]1CN([C@H](C)CO)C(=O)c2cc(NC(=O)Nc3ccc4c(c3)OCO4)ccc2O[C@H]1CN(C)Cc1ccncc1	–	inconclusive: 79.4 µM [inhibitor, single point]
O=C1/C(=C/c2ccco2)SC(=S)N1CCC(=O)N1CCCCC1CCO (centres undefined)	inactive: 31.6%	–
Cc1ccc(N2C(=O)CC(N(O)C3CC(=O)N(c4ccc(C)cc4)C3=O)C2=O)cc1 (centres undefined)	–	inconclusive: 25.1 µM [inhibitor, partial curve, poor fit]
FC(F)(F)c1nc(-c2cccnc2)ncc1-c1nnnn1-c1ccccc1	inactive: -8.56%	–
Cc1nc(SCc2ccc(O)c([N+](=O)[O-])c2)c([N+](=O)[O-])[nH]1	–	inconclusive: 25.1 µM [inhibitor, full curve]
CC1CCCC/C1=N\NC(=S)Nc1ccccc1 (centres undefined)	–	inconclusive: 14.1 µM [inhibitor, partial curve, poor fit]
CN(Cc1ccccc1)S(=O)(=O)c1ccc2c(c1)n(C)c(=O)c(=O)n2C	inactive: -13.9%	–
FC(F)(F)c1ccc2c(c1)N1CCCC1CN2 (centres undefined)	inactive: 22.1% [at 57.1 µM]	–

Compound	activity change, negative = inhibition	Potency
COC(=O)CCc1ccccc1S(=O)(=O)N(CCC(=O)OC)Cc1ccccc1	–	inconclusive: 35.5 µM [inhibitor, single point]
Cc1ccc(S(=O)(=O)Nc2cccc3cccnc23)c([N+](=O)[O-])c1	inactive: 0.237% [at 57.1 µM]	–
O=C(CCc1nnc(-c2ccsc2)o1)N1CCc2c(Cl)cccc2C1	inactive: 21.1%	–
COc1ccc(CN(C)Cc2c(O)ccc3cc(Br)ccc23)cc1OC	–	inconclusive: 56.2 µM [inhibitor, partial curve]
CCOCCCn1c(-c2ccc(Cl)cc2)n[nH]c1=S	–	inconclusive: 2.51 µM [inhibitor, full curve, poor fit]
O=C(Nc1cccc(C(=O)Nc2ccc(S(=O)(=O)O)c3cc(S(=O)(=O)O)cc(S(=O)(=O)O)c23)c1)Nc1cccc(C(=O)Nc2ccc(S(=O)(=O)O)c3cc(S(=O)(=O)O)cc(S(=O)(=O)O)c23)c1	–	inconclusive: 70.8 µM [inhibitor, partial curve] and inconclusive: 42.3 µM [inhibitor, single point]
CN(Cc1nc(-c2ccncc2)no1)S(=O)(=O)c1ccccc1	inactive: 0.386% [at 57.1 µM]	–
Cc1ccc(C)c2[nH]c(=O)c(CN(Cc3cccnc3)C(=S)NCc3ccco3)cc12	–	inconclusive: 56.2 µM [inhibitor, partial curve, poor fit]
COc1cc(C(=O)NC(=S)Nc2ccc(Cc3ccncc3)cc2)cc(OC)c1OC	–	inconclusive: 11.2 µM [inhibitor, full curve]
Cc1ccc(C)n1-c1ccc(C(=O)Nc2ccccc2)cc1	–	inconclusive: 70.8 µM [inhibitor, partial curve]
O=C(O)C1CCCCC1C(=O)NCCc1cccc(Cl)c1 (centres undefined)	inactive: 11.5%	–
CCOC(=O)C1C(=O)C=C(c2cccc(NS(C)(=O)=O)c2)CC1c1ccco1 (centres undefined)	inactive: -28% [at 57.1 µM]	–
COc1ccc(-c2noc(-c3nnn(-c4ccc(C(C)C)cc4)c3C)n2)cc1OC	inactive: 23.4% [at 57.1 µM]	–
O=c1[nH]c(CSc2nnc3ccccn23)nc2ccccc12	inactive: -8.7%	–
CCOc1ccc(C2C(=O)N(C3CCCCC3)CC(=O)N2CCC2=CCCCC2)cc1OC (centres undefined)	inactive: -0.311% [at 57.1 µM]	–
CCS(=O)(=O)c1ncc(Cl)c(C(=O)Nc2ccccc2OC)n1	–	inconclusive: 5.01 µM [inhibitor, full curve, poor fit]
COc1ccccc1N1CCN(Cc2cc3c(cc2O)OCO3)CC1	–	inconclusive: 6.31 µM [inhibitor, full curve]
O=C(C[n+]1cccc(C(=O)N/N=C/c2ccc(Br)cc2)c1)c1ccccc1	inactive: 2.37%	–
CC(CN1CCOCC1)C(=O)c1ccccc1 (centres undefined)	–	inconclusive: 70.8 µM [inhibitor, single point]
Cc1ccccc1Nc1ccc(S(=O)(=O)N2CCOCC2)cc1[N+](=O)[O-]	–	inconclusive: 79.4 µM [inhibitor, single point]
O=C(CSc1ncnc2c1nnn2-c1ccc(F)cc1)NCc1ccco1	–	inconclusive: 89.1 µM [inhibitor, single point]
CN(C)S(=O)(=O)c1cccc(-c2cn3cccnc3n2)c1	–	inconclusive: 39.8 µM [inhibitor, single point]

— PubChem BioAssay AID588453 (National Center for Advancing Translational Sciences (NCATS), 2011)
